Experiment [1] has as its target T1, human IgG1 Fc, polyclonal (Jackson Immuno Research, #009-000-008) (human, UniProt P01857-1 108-330 = IgG part).
T1 construct: domain: Fc; also called Fc from human IgG; IgG-Fc
The experiment in a line: ELISA. In general terms: In an ELISA, binding on a coated surface is turned into a signal by an enzyme label.

Experiment [2] has as its target T2, Murine PDGF-Rβ-Fc (R&D Systems, #1042-PR/CF) (murine, UniProt P05622 32-530, limits assumed).
T2 construct: Bought; also called mouse PDGF-Rβ; mPDGF-Rβ; not shown: Fc part, bought, not described
T2 sequence (looked up): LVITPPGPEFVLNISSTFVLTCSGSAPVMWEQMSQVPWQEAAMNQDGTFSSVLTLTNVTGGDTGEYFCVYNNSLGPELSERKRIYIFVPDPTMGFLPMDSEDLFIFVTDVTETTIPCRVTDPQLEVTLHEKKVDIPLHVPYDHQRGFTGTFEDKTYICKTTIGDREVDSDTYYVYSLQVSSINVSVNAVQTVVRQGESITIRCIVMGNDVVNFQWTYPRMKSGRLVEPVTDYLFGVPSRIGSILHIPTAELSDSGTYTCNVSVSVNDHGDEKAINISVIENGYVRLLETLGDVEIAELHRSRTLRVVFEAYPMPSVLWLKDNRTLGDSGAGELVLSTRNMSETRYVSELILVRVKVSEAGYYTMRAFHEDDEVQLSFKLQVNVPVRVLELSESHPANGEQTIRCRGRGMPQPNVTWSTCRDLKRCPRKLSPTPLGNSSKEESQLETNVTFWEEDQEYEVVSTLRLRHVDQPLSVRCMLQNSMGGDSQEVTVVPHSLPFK
Kind of experiment: Biacore, receptor on chip.

In experiment [3] the target is T2, Murine PDGF-Rβ-Fc (R&D Systems, …). The experiment in a line: Biacore, receptor on chip, Langmuir 1:1 model, 4 nM and 20 nM injections. (In general: SPR reads the build-up and loss of mass on a sensor chip optically.)
For experiment [4], the target named is T3, extracellular domain of recombinant human PDGF-Rβ with a C-terminal Fc fusion and His6-tag (R&D Systems, … (human, UniProt P09619 34-531)).
T3 construct: Bought; also called hPDGF-Rβ; human PDGF-Rβ-Fc; not shown: Fc part of IgG
Described as above.

The target of experiment [5] is T4, Human PDGF-sRα (R&D Systems, #322-PR/CF) (human, UniProt P16234 24-524, limits assumed).
T4 construct: Bought; also called human PDGF-Rα; PDGF-Rα
The experiment in a line: Biacore, receptor on chip.

Experiment [6] addresses T3, extracellular domain of recombinant …. The experiment in a line: Biacore, receptor on chip, Langmuir 1:1 model.
Experiment [7] has as its target T2, Murine PDGF-Rβ-Fc (R&D Systems, …). Kind of experiment: Biacore, receptor on chip, Langmuir 1:1 model.

Where a chain is given by its changes, count along the chain named.

B1: SEQ ID NO 359 (designed binder)
chain: VDNKFNKERAEAAQEIDQLPNLNRGQWNAFIASLVDDPSQSANLLAEAKKLNDAQAPK
For B1, the binding result in experiment [1] is “no binding”.

B2: SEQ ID NO 361 (designed binder)
chain: B1 chain with R9L, A10S, E11D, Q18S, G25S, A32K, V35I
Take B2: in experiment [1], the binding result is reported as “no binding”.

B3: SEQ ID NO 362 (designed binder)
chain: B1 chain with A10R, Q14A, Q18N, G25S, A32Q
B3: the binding result in experiment [1] is “no binding”.

B4: SEQ ID NO 363 (designed binder)
chain: B1 chain with A10R, Q14K, Q18S, G25T, A32R, V35A
On to B4, for which the binding result in experiment [1] is on record as “no binding”.

B5: His6-Z02833 (designed binder)
chain: GSSHHHHHHLQVDAKFAKELVKAAAEIDALPNLTRRQWNAFIKKLVDDPSQSSELLSEAKKLNDSQAPKVD
notes: Mutated from Z02483
For B5, the binding result in experiment [2] was “binds”.

B6: His6-Z02834 (designed binder)
chain: B5 chain with D47K
notes: Mutated from Z02483
B6: in experiment [2], the binding result is “binds”.

B7: His6-Z02832 (designed binder)
chain: B5 chain with T34N
notes: Mutated from Z02483
Turning to B7, the binding result in experiment [2] was “binds”.

B8: His6-Z02831 (designed binder)
chain: B5 chain with K44S
notes: Mutated from Z02483
On to B8, for which the binding result in experiment [2] was “binds”.

B9: Z02465-Cys-NEM (designed binder)
chain: GSSLQVDNKFNKELIEAAAEIDALPNLNRRQWNAFIKSLVDDPSQSANLLAEAKKLNDAQAPKVDC
modifications: C-terminal cysteine blocked with N-ethylmaleimide (NEM)
notes: 58-mer 418 inferred
What is called Kd is the free concentration of one partner at which half of the binding sites on the other are occupied at equilibrium, for simple one-to-one binding. Regarding B9, the Kd in experiment [3] came to 7 nM.

B10: Z03358-Cys-NEM (designed binder)
chain: AEAKYAKELIEAAAEIDALPNLTRRQWNAFIKKLVDDPSQSSELLSEAKKLNDSQAPSC
modifications: C-terminal cysteine blocked with N-ethylmaleimide (NEM)
notes: Mutated from Z02465
As for B10, the Kd in experiment [4] came to 0.44 nM; in experiment [3], 7 nM.

B11: SEQ ID NO 368 (designed binder)
chain: VDNKFNKEIKFAAGEIDNLPNLNRKQWNAFIGSLRDDPSQSANLLAEAKKLNDAQAPK
For B11, in experiment [1], the binding result was “no binding”.

B12: His6-Z02465-Cys-NEM (designed binder)
chain: MGSSHHHHHHLQVDNKFNKELIEAAAEIDALPNLNRRQWNAFIKSLVDDPSQSANLLAEAKKLNDAQAPKVDC
modifications: C-terminal cysteine blocked with N-ethylmaleimide (NEM)
Turning to B12, in experiment [5], the binding result is given as “no binding (tested: 100 nM)”. For the same molecule, the Kd in experiment [6] turned out to be 0.5 nM; in experiment [7], 7 nM.

B13: His6-Z02483-Cys-NEM (designed binder)
chain: B12 chain with I22V, E23K
modifications: C-terminal cysteine blocked with N-ethylmaleimide (NEM)
Consider B13, for which the binding result in experiment [5] is given as “no binding (tested: 100 nM)”. Besides, the Kd was 0.4 nM in experiment [6] and 6 nM in experiment [7].
